Data from the supplement of paper PMC3724861.
The other results are listed elsewhere or left out.

tested on: T1, Caupolican (Caup) homeodomain DNA-binding domain; assay: PBM E-score (8-mer, recovered from the published 9-mer minima) (E-score (dimensionless, -0.5 to 0.5)); Drosophila protein; higher = stronger relative binding preference, active = 0.31 or more
T1 sequence: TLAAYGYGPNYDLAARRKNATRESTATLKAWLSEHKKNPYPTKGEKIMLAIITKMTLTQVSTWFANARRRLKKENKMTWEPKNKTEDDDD
Experimental: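 Protein binding microarray (PBM): in vitro transcribed/translated Caupolican (Caup) homeodomain DNA-binding domain (residues 214-303) applied at 100 nM to a universal 8-mer PBM array (Agilent AMADID 015681). The 8-mer enrichment score (E-score, range -0.5 to 0.5) was computed, and each 9-mer score is the minimum E-score of its two constituent 8-mers. The E-score is the same for a 9-mer and its reverse complement; 0.31 is the stated binding threshold.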

Sequence	PBM E-score
TAGACCTA	inactive: 0.028
CCACATAA	inactive: 0.0629
TAATATTA	inactive: 0.217
ATCGCAAT	inactive: 0.068
CCTCTCGC	inactive: -0.131
GATTTGGC	inactive: 0.0186
CTCACTTC	inactive: -0.186
AGCATAGA	inactive: 0.024
ATGCCCGA	inactive: -0.0379
ACGTCACT	inactive: 0.0389
CACAAGCC	inactive: 0.00236
CGACGATC	inactive: 0.00125
CCCATTTA	inactive: -0.0188
AGCCACAT	inactive: 0.0502
CGCGACAA	inactive: 0.135
AACAGTGT	inactive: 0.217
ATCTACTC	inactive: -0.00774
CTAGAGCA	inactive: -0.132
ATTCTCAC	inactive: 0.0568
GTACAGGA	inactive: 0.215
ACGCCGTG	inactive: -0.0416
ACTGTAAT	≥ 0.25
AGTGGAGG	inactive: -0.192
ACATGCGG	inactive: 0.195

Sequence	PBM E-score
ATCGGAGG	≥ -0.0367
GCTATGCA	inactive: -0.0587
CGGTTGAA	inactive: 0.0594
AGAGACGC	inactive: -0.123
GCCCCGGC	inactive: -0.316
CGGTCCAC	inactive: -0.159
GGGCACGA	inactive: -0.135
AAGAGCCG	inactive: -0.192
CACTTGAC	inactive: -0.00051
GACTTATC	inactive: -0.0506
AGCTACTA	inactive: 0.0754
GTACTACA	active: 0.376
ACTTTTTG	inactive: 0.0504
ACCAGTCC	inactive: -0.146
TAGAATGA	inactive: 0.1
GGGCGACA	inactive: 0.00421
AATCATCG	inactive: 0.0554
GCCGCGAC	inactive: -0.16
CATGTTAA	active: 0.446
ATTAGGCC	inactive: -0.105
ATCCCGAG	inactive: -0.0679
GAGGAATA	inactive: 0.0804
CCGCTTAC	inactive: 0.00718
GAACATGA	active: 0.421

Sequence	PBM E-score
CGAAATTA	inactive: 0.0602
ACAAGAAG	inactive: 0.183
ATAAGAGG	inactive: -0.0631
GTGGCAGA	inactive: -0.127
ATGTGCCG	inactive: 0.00478
CATCCCGG	inactive: -0.0912
ACCTGTAG	inactive: 0.0685
CCGGCACC	inactive: -0.133
CACGCGCG	inactive: -0.13
CTTATGCC	inactive: -0.12
GCAAGGGC	inactive: -0.246
AACGCCAG	inactive: -0.0943
ATCGATTG	≥ 0.168
CATGCCTA	inactive: -0.00155
CCCTCGCC	inactive: -0.245
TTGCCAAA	inactive: -0.0145
TACAAACA	active: ≥ 0.368
AACCCTGA	inactive: 0.0485
CTGTGCTA	inactive: -0.0423
ACGACTGC	inactive: -0.0879
AAACTCAC	inactive: -0.0156
CGCCAAAG	inactive: -0.184
ATAGATTG	inactive: 0.0996
GAGCCACA	inactive: -0.0491

Sequence	PBM E-score
CCCAATCA	inactive: -0.0612
CGTAGGTA	inactive: 0.00757
ATGTGACA	inactive: 0.295
GCCTTGTA	active: 0.321
CTATCGCA	inactive: -0.029
GGGTCGAA	inactive: -0.183
ATACCGGA	inactive: 0.083
CGCAGAAG	inactive: -0.119
AGATCTCC	inactive: -0.109
AGGCCGGG	inactive: -0.268
CAAGTGCG	inactive: -0.0347
CGAATACC	inactive: 0.0173
AGATCCAA	inactive: 0.0349
ATTGATCC	inactive: 0.0574
TAACGTTA	inactive: 0.117
TCGCGCGA	inactive: -0.135
AGAACTAG	inactive: 0.051
GGCGGGGA	inactive: -0.106
ACAGTGGT	inactive: 0.0669
CCGATCTA	inactive: -0.0062
ATCCTTTC	inactive: 0.0514
GGCCTAAA	inactive: -0.0132
GACGTCGA	inactive: 0.00514
ACTGTCGA	inactive: 0.0243

Sequence	PBM E-score
ACCAGTGG	inactive: 0.0166
ACAGACAG	inactive: 0.127
GAATGCCA	inactive: -0.126
AGTAGCGG	inactive: -0.174
CGAAACGC	inactive: -0.111
AGTTGCTC	inactive: 0.0426
CGGTTACC	inactive: -0.0529
GCGTCAAA	inactive: -0.0205
ACACGCGT	inactive: 0.266
AAATGACC	inactive: -0.0401
AAAACTTT	inactive: 0.0241
CACTGGTC	inactive: -0.00509
AACGGCCA	≥ -0.0672
ATATTAAG	inactive: 0.169
GCAACGCC	inactive: -0.0458
GAGTACCC	inactive: -0.0435
CGCCCAGC	inactive: -0.274
AGGCCGTC	inactive: -0.158
CACAGCCA	inactive: 0.0164
AGCTGGGA	≥ -0.0926
AGCCATCC	inactive: -0.117
CTGAACAC	inactive: 0.235
GCGTAGGA	inactive: -0.169
AGGTATAG	inactive: -0.0297

Sequence	PBM E-score
ATCCGAGA	inactive: 0.0105
CTACCTGC	inactive: -0.139
CACGACCA	inactive: 0.098
CTTGGAAA	inactive: 0.0432
GCTTGTCC	inactive: 0.305
ACCAGCCT	inactive: -0.101
CCAGCGAG	inactive: -0.183
CCCGCTTC	inactive: -0.228
ATCAATTC	inactive: 0.0533
GTTAAAAA	inactive: 0.142
AAGCCTAC	inactive: -0.0275
CACCGGGC	inactive: -0.224
AACCCACT	inactive: -0.0915
GGGGGTGA	inactive: -0.237
AGGAGGAT	≥ -0.00134
TGTCCAAA	≥ 0.295
AAGACCTT	inactive: -0.00031
GTGTCCGA	inactive: 0.151
ATTCCGTC	inactive: 0.0459
GTTGCGCA	inactive: -0.0292
AGCAAGCG	inactive: 0.0226
CCTTGGAC	inactive: 0.00105
GGGGACAC	inactive: -0.0791
